The source of these data is the RNAGym collection of RNA variant scans (doi:10.7554/elife.90254).

The chains are these.
B1: LINE1-mini (parent)
chain: GGCAGAGCUCAACACAGCGUGGCAAAGUGGCUGUGGCUAGACUGCC

Read counts are not given, so values of variants with three or more changes are uncertain.

The variants in the series derive from B1. Description: self-cleavage, relative activity (ratio to wild type); higher = more cleavage; in vitro, sequencing; the parent is a self-cleaving ribozyme.
Regarding GACAGAGCUCAACACAGCGUGGCAAAGUGUCUGUGGUUAGACUGCC, the self-cleavage stood at 0.05.
For GGCAGAGCUCAACACAGCCUGACAAAGUGUCUGUGACUAGACUGCC the value was 0.01; for GGCAGAGCUAAACACAGCGUGGCAAUGUUGCUGUGGCUAGACUGCC, 0.01; for UGCAGAGAUAAACACAGCGUGGCAGAGUGGCUGUGGCUAGACUGUC, 0.
For the variant GGCAGAGCUCAAAACAGUCUGGCAAAGUUUCUGUGGCUAGACUGCC, the self-cleavage was found to be 0.5.
Next, GGCAGACCUCAACACAGCGUCGCAAAGUGGCUGUGGCUAGAAUGCC: 0.01; GGCAGAGCUCAACACGGCGUGGCAAAGUAGCUGUGGCAAGACUGCC: 0.47.
With UGCAUAGCUCAACACAGCGUGGCUAAGUGGCUGUGGCUAGACUGAC, the self-cleavage was found to be 0.05.
Take GGCAGAGCUCUACACAGCGUGGCAAAGUGACCGUGGCUAGACUGCC: the self-cleavage is 0.02.
Regarding GCCAGAGCUCAACACAGCGUGGCAAAGUGGCUUUGGCUAGAUUGCC, the self-cleavage was 0.02.
As for GGCAGAGCUCAACACAGAGUGACAAAGUGGCUGUGGCUAGACUCCU, the self-cleavage is 0.05.
GGCAGAGCUCAACACACCGUGGCAAAGUGGCUGUGGCUAGAUUACC: the self-cleavage stood at 0.09.
In the case of GGCAGAGCUCAGCACAGCGUUGCAAAGUGGCUGUGGCUAGUCUGCC, the self-cleavage came out at 0.12.
For the variant GGCAGAGCUCUUCAAAGCGUGGCAAAGUGGCUGUGGCUAGACUGCC, the self-cleavage amounted to 0.02.
As to GGCAGAGCUAAUCAAAGCGUGGCAAAGUGGCUGUGGCUAGACUGCC, the self-cleavage was 0.01.
For the variant GGCCGAGCUCAACACUGCGUGGCAAAGUGGCUGUGGCUAUACUGCC, the self-cleavage came to 0.13.
In the case of GGCAGAGCCCAACACAGCGUGGCGAAGUGACCCUGGCUAGACUGCC, the self-cleavage stood at 0.03.
Turning to GACAGAGCUCAACAUAGCGUGGCAAAAUGGCUGUGGCUAAACUGCC, the self-cleavage amounted to 0.33.
On to GGCAGAGCUCAACACAGCGUGGCAACGGGGCUGUGGCUAGACUGAC, for which the self-cleavage came to 0.31.
With GGCAGAGCUCAACACAGCGUGGCAAAGUGGCUGUAACUAGCCUUCU, the self-cleavage was determined as 0.06.
Consider GGCAGCACUCAAUACAGUCUGGCAAAGUCACUGUGGCUAGACUGCC, for which the self-cleavage was 0.1.
In the case of GGCCGAGUUCAACACAGCGUAGCAAAGUGGCUGAGGCUAGAGUGCC, the self-cleavage was 0.23.
For GGCAGAGCUCAACACAGCGUGCCAAAGGGGCUGUCGUUAGACUGCG the value was 0.01.
Consider GUCAGAGCUCAACACAGUGUGGCAAAGUGGCUGUGGCUAGACUGCG, for which the self-cleavage was found to be 0.03.
Take GCGAGAGUUCAACACAGUGUGGCAAAGUGCCUGUAGCUAUACUGCC: the self-cleavage is 0.03.
For GGCCGAGCUCUACACAGCGUGGCAAAGUGGCUGCGGCUAGACUGCC the value was 0.04; for GGCAGAGUUCAACACAGAGUGGCAAAGUGGCUCUUACUAGACUGCC, 0.15.
Turning to GGCAGAGCUCAACACAGCGUGUCAAAGUUGCUGUGGCUAGCCUGAC, the self-cleavage came out at 0.08.
Consider GGCAGAGAUCAAUACAGCGUGUCAAAGUGGCUGUGGCUAGACUGCC, for which the self-cleavage came to 0.45.
GGUAGAGCUUAACACAGUGUGGCAAAGUGGCUGUAGCUAGACUGCC: the self-cleavage was determined as 0.07.
For GGCGGAACUCAAGACAUCGUUGCAAAGUGGCUGUGGGUUGACUGCC the value was 0.01; for GCCAGAUCUAAACACAGCGUGGCAAAGUGGCUGUGCCUCGACUGCC, 0.02.
For the variant GGCAGCGCUCAACACAUCGUGGCAAAGUGGCAGUGAAUAGACUGCC, the self-cleavage came to 0.13.
Consider GGCAGAGCUCAACGCAGCGUGACAAAUUGGCUGUGGCUAGACUGCC, for which the self-cleavage is 0.38.
In the case of GUAAGAGCUCAACACAGCGUGGCACAGUGGCUGUGGCUAGACUGCA, the self-cleavage turned out to be 0.03.
For GUCAGAGCUAAACACAGCGUGGCAAAGUGUUUGUGGCUAGACUGCC the value was 0; for GGGAGCGCUCAACACCGCGUGUCAAAGUGGUUGUGGCUAGACUGCC, 0.03.
For GGCAGAGCUCAACACAGCGUGGGAAAGUGGCUUAGGCUAGACUGCC the value was 0.06; for GGCAGAGCUCAAAACAGCGUGGCAAAGUGGCUCUGGUGAGACUGCC, 0.01; for GGCAGAGCUCAACGCAACGUGGCAAAGUGGCUGUGGAUUGACUGCC, 0.02.
For GUCACAGCUCGACACAGCGUGGCAAAGUGGCUGUGGCUAGACUGCC the value was 0.01; for GGCAGACCUCAACACACCGUGGCAAAUUGGCGGUGGCUAGAGUGCC, 0.01; for GGCAGAGCUCAACACAGCGUUGCAAAGUGGCUGUGGCCAGACUGAC, 0.18.
For GGCAGAGCUAAACACAGCGUGGCAAAGUGGCUGUGGCUAGAGUGCU, the self-cleavage came to 0.01.
With GGCAGAGCUCAACACUGUGUGGCAAAGUGGCUGUGGCUCGACUGCC, the self-cleavage turned out to be 0.06.
For GGCAGAGCUCAACACAGCGUGGCAAAGUGGCUGUCGCCAGAGUGCC, the self-cleavage is 0.03.
For the variant GGCAGAGCUCAACACAGCGUGACGAAGUGGCUGUGUUUAGACUGAC, the self-cleavage came to 0.01.
Next, GGCACAGCUCAACACAAAGAGUCAAAGUGGAUGUGGCAAGAAUGCC: 0.1; GGCAGAGCGCAACACAGCGUGGCAAAAUGGCUGUGGCUAGACUGCU: 0.04; GGCAUAGCUCAAUACAGCGUGGCAAAGUGGCUGUGGCAAGACUGCC: 0.05.
On to GGCAGAGCUCAACACAGCGUGGCAAAAAGGCUGUGGCUAGACCGUC, for which the self-cleavage was 0.07.
For the variant GGUAGAGCUCAACACAGCAUGGCAAAGUGGCUGUGGCAAGACUGGC, the self-cleavage stood at 0.18.
In the case of GGCAGAUCUCAACACAGAGGGGCAAAGUGGCUGUGGCUAGACUGCC, the self-cleavage was determined as 0.11.
GGCAGAGCUAAACAAAGCGUGGCAAAGUGGCUGUGGCUAAACUGCC: the self-cleavage was 0.01.
For the variant GGCCGAGCUCAACACAGCGUGGCAAAAUCGCUGUGGCUAGACUGCA, the self-cleavage stood at 0.03.
As for GGCAGAUCUCAACACAACGAGGAGAAGUAGCUGUGGCUAGGCUGCC, the self-cleavage is 0.09.
On to UGCAGAGAUCAACACAGCGUGGCAAAGUGGCUGUGACUAGACUGAC, for which the self-cleavage turned out to be 0.31.
In the case of GGCAGAGCCCAACACAGCGUGGCAAAGUGGCUGUGGCUAUACUGGC, the self-cleavage came out at 0.01.
For GGCGGAGCUCGACACAGCGUGGUAAAGUGGCCGUGGCUAGACUGCC the value was 0.01; for GGCAGAGCUCAAUACAGCGUGGCAACGUUGCUGUGGCUAGACUGCC, 0.21.
Consider GGCAGAGCUCAACACAGCGUGGCAAUGUGACUAUGGCUAGACUGCC, for which the self-cleavage was 0.15.
Next, GGCAGGGCUCAACACAGCGUGGUAAAGUGGCUGUGACUAGACUGCA: 1.39.
For AGCAGAGCUCAACAUAGCCUGGCAAAGUGGCUGUGGCUAGACUGCC the value was 1.34; for GGGAGAGCUCAAGACAGCGUGGCAAACUGGCUGUGGCUUGACUGCC, 0.25.
Turning to GGCAGAACUCAACACAGCGUGGCAAAGUGGCUAUGACUAGACUCCC, the self-cleavage turned out to be 0.23.
With GGCAAAGCUUAACACAGCUUGGCAAAGUGGCUGUAGCUAGACUGCC, the self-cleavage was 0.01.
Consider AGCAGAGCUCAACACAUCGUUGCAAAGCGGCUGUGGCUUGACGGCC, for which the self-cleavage was 0.04.
GGCAGAGCUCUACAUAGCGUGACAAAGUCGCUGUGGCUAGACUGCC: the self-cleavage stood at 0.59.
Turning to GGCAUAGCUCAACACAGCGAGGCAAAGUGGCUGUGGCUAUACUGCC, the self-cleavage was 0.01.
Regarding GCCAGCGCUCAGCACAGGGUGGCAAAUUGGCUGCGGCUAGACUGCC, the self-cleavage turned out to be 0.16.
In the case of GGAAGAGCUCAACACAGCGUGGUGAAGUGGCUGUGGCUAGACUACC, the self-cleavage stood at 0.52.
Next, GGCAGCGUUCACCACGGCGUGGCAAAGUGGCUGUGGUUAGACUGCC: 0.01; GGCAGAGCUCAACACAGCGUGGCAAAGUGGGUGUGGCUAGACCGAC: 0.04; GGCAGAGCUCAACACAGCGUGGCAAUAGGGCUGUGGCUAGACUGCC: 0.93.
As for GGCAGACCUCAACUCAGCGUGGCAAAGGGGCUGUGGCUAAACAGCC, the self-cleavage was found to be 0.02.
Regarding AGGAGAGCUCAACACAGCGUGGCAAAGUGUCUGUGGCUAGACUGCC, the self-cleavage turned out to be 0.62.
As for GGCAGAGCUUAACAUAGGGUGGCAAAGUGGAUGUGGCUAGACUGCC, the self-cleavage worked out at 0.04.
For the variant GACAGAGCUGAACACAGCAUGGCAAAUUGGCUGUGGCUAGACUGCC, the self-cleavage came to 0.04.
Take GGCAGAGCUCAACUCAGCGGGGCAAAGUGGCUGUGGUUAAACUGCC: the self-cleavage was 0.12.
Consider GGCAGAGCUCAACACAGCUUGGCAAAGUGGCUGCGGCUACACUGCC, for which the self-cleavage is 0.05.
GGCAGCGCUCAACACAGCGUGGCAAACUGGCUGUGUCUAGACUGCC: the self-cleavage is 0.02.
Regarding GGCAGGGCUCAAGACAGUGUGGCAAAGUGGCUGUGGCUAGACUGCC, the self-cleavage was determined as 0.05.
Turning to GGCAGAAUUCAACACAGCAUGGCAAAGUGGCUGUGGCUAUACUGCC, the self-cleavage came to 0.69.
For GGCAGAGCUCACCACAGCGCGGCAAACCGGCUGUGGCUAGACUGCC the value was 0; for GGCAGAGCUCGACACAGCGUGGCAAAGUGGCUGUGGCUGGACUUCC, 0.02; for GGCAAAGCUCAUCACAGCGUGGCAAAGUGACUGUGGCUAGACUGCC, 0.06.
For the variant GGCAGAGCUCAUCACAGCGUGGCAUAGGGGCUGUGGCCAGACUGAC, the self-cleavage is 0.06.
For GGCAGAGCUCAACACUGCGUGGCGAAGUGGCUGUGGCUAGACGACC, the self-cleavage turned out to be 0.03.
For GGCAGAGCACAACACAGCGUGGCAAAGCGGCUGUGGCGAGACUGCC, the self-cleavage turned out to be 0.1.
As for GGCAGAGCUCAACACAGCGUGGCGAAGUGGCUGUGGUGAGACUUCC, the self-cleavage was determined as 0.05.
For GGCAGAGGUCUACUCAGCUUGGCAAAGUGGCUGUGGCUCGACUGCC the value was 0.
With GGCAGAGCUCUACACAGCGUGGCAAAAUGGCUGUGUCUAGACUGCC, the self-cleavage was found to be 0.02.
In the case of GGCAGAGCUCAACACAGCGUGGCAAUGUGCCUGUGGCUAGACUGCG, the self-cleavage was found to be 0.21.
Turning to GGCAUAGCUCAACACAGAGUGGCAAAUUGGCUGUGGCUAGACUGCA, the self-cleavage was 0.03.
With GGCAGAGCUCAACACACCAUGGUAUAGUGGCUGUGGCUAGACUGCC, the self-cleavage was determined as 0.41.
Regarding GCCAGAGCCCAACACAGCGUGGCAAAGUGGCUGUGGUUAGACUGCC, the self-cleavage was 0.03.
On to GGCAGAGCUCAACAUAGCGUGGCAGAGUGGCUGUGGCUAGACUUCC, for which the self-cleavage is 0.02.
Next, GGCAGAGGUCAACACAGCGUGGCUAAUUGGCUGUGGCUAGACUGCC: 0.22; GGCAGAGUUCUACACAGCGUGGCAAAGUGGAUGUGGCUAGACUGCC: 0.01.
Take ACCAGAGCUCAACACAGGGUGGCAAAGUGGCUGUUGCUAGACUGCC: the self-cleavage turned out to be 0.03.
For GGCAUAGCUCAACUUAGCGUGGCAAAGCGGCUGUGGCUAGACUGCC the value was 0.03; for GGGAGAGCUAAACACAGCGUGGCAAAGUGGCUGUGGCUAGACUGUC, 0.04; for GGCAGAGCUAACCACAGCGUGGGAAAGUGGCUGUGGCUAGACUGUC, 0.
Turning to GGCAGAGCUCAACACAGAUUGGCAAAGUGGCUGUGGGUAGACUGCC, the self-cleavage came to 0.01.
For GGCAGAGCUAAACACAGCGUGGCAAAGUGGCUCUGGCUAGAUUGCC, the self-cleavage was 0.02.
For GGCAGAGCUCAACAGAGCGUGGUAAAGUGGCUGUGGCUAGACUGCG, the self-cleavage stood at 0.04.
Take GGGAGAGCUCAACACCGCGUGGAAAAGUGGCUGUGACUCGACUGCC: the self-cleavage is 0.02.
As for CGCAGGGCACAACACGGCGUGGCAAAGUGGCAGUGGCUAGACUGCC, the self-cleavage stood at 0.02.
Turning to GGCAAAGCUCAACACAGAGUGGCGAAGUGGCUGUGGCUAGACUGGC, the self-cleavage is 0.06.
Consider GGCAUAGCUCAACACAGCGUUGCAAAGUGGCUGUGGAUAGACUGCC, for which the self-cleavage came to 0.04.
For the variant CGCAGAGCACAACACAGCGUGGCAAAGUGGCUGUGGCUACACUGCC, the self-cleavage stood at 0.01.
Turning to GGCAGAGCUCAACAGAGCGUGGCAGAGUGGCUGUUGCUAGUGUGCA, the self-cleavage amounted to 0.02.
